In the assay the target is butyrylcholinesterase (horse serum E.C. 3.1.1.8); BChE (Equus caballus, UniProt P81908). The assay can be described thus: biochemical.

Drawing on article PMC3718625, “Acetyl and butyryl cholinesterase inhibitory sesquiterpene lactones from Amberboa ramosa” (Chemistry Central Journal, 2013), this text covers IC50 for 2 compounds.

Chain of UniProt P81908 (P81908 whole entry): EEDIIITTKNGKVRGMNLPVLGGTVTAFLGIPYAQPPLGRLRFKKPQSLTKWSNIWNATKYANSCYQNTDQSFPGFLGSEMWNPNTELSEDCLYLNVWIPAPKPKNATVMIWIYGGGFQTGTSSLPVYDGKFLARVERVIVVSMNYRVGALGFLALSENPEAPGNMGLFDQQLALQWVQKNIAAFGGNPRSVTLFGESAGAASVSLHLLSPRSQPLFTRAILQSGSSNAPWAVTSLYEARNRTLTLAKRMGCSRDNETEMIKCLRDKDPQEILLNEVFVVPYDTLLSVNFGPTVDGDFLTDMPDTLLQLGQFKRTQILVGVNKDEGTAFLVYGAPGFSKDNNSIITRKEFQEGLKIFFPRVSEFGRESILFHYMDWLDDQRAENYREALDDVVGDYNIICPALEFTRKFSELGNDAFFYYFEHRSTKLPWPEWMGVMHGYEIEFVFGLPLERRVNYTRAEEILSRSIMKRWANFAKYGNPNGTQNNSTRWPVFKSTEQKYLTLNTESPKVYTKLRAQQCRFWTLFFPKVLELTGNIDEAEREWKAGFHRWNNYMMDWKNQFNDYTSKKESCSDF

`CC(=O)O[C@H]1C[C@@](C)(OC(CO)CO)[C@@H]2CC=C(C)[C@@H]2[C@H]2OC(=O)[C@@H](C)[C@@H]21` [compound 1, 8α-Acetoxy-10α-(1,3-dihydroxy-2-propyl)-1 α H, 5α H, 6β H, 7α H, 11 β H, 11α-methylguaia-3-enolide]: the midpoint of inhibition, the IC50, lay at 17.9 ± 0.05 µM. Regarding `CC(=O)O[C@H]1C[C@@](C)(O)[C@@H]2CC=C(C)[C@@H]2[C@H]2OC(=O)[C@@H](C)[C@@H]21` [compound 3, Amberbin A], the IC50 (usually the point on the concentration scale where inhibition reaches its midpoint) was 4.8 ± 0.15 µM.
